Assay results: the supplement of paper PMC8728848
The other results are listed elsewhere or left out.

How the values were obtained:
Assay in all cases: glycan array binding signal (z-score within array); higher = stronger binding
Conditions in all cases: glycan notation: IUPAC condensed, linker removed; mutation: E41A
[1] = target: Fuc(a1-2)Gal
Summary of the method: (§1)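 The Consortium for Functional Glycomics database supplied 3228 glycan arrays, of which those lacking an available protein sequence were dropped. The binding signal, a within-array Z-score, was averaged across arrays of the same protein sequence and across linkers. Negative scores can be read as non-binding.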

[2] = target: Fuc(a1-2)Gal(b1-3)GalNAc
Summary of the method: as §1

[3] = target: Fuc(a1-2)Gal(b1-3)GalNAc(a1-3)[Fuc(a1-2)]Gal(b1-4)Glc
Summary of the method: as §1

[4] = target: Fuc(a1-2)Gal(b1-3)GalNAc(a1-3)[Fuc(a1-2)]Gal(b1-4)GlcNAc
Summary of the method: as §1

[5] = target: Fuc(a1-2)Gal(b1-3)GalNAc(b1-3)Gal
Summary of the method: as §1

[6] = target: Fuc(a1-2)Gal(b1-3)GalNAc(b1-3)Gal(a1-4)Gal(b1-4)Glc
Summary of the method: as §1

[7] = target: Fuc(a1-2)Gal(b1-3)GalNAc(b1-4)[Neu5Ac(a2-3)]Gal(b1-4)Glc
Summary of the method: as §1

[8] = target: Fuc(a1-2)Gal(b1-3)GlcNAc
Summary of the method: as §1

[9] = target: Fuc(a1-2)Gal(b1-3)GlcNAc(b1-2)Man(a1-3)[Fuc(a1-2)Gal(b1-3)GlcNAc(b1-2)Man(a1-6)]Man(b1-4)GlcNAc(b1-4)GlcNAc
Summary of the method: as §1

[10] = target: Fuc(a1-2)Gal(b1-3)GlcNAc(b1-2)Man(a1-3)[Fuc(a1-2)Gal(b1-3)GlcNAc(b1-2)Man(a1-6)]Man(b1-4)GlcNAc(b1-4)[Fuc(a1-6)]GlcNAc
Summary of the method: as §1

[11] = target: Fuc(a1-2)Gal(b1-3)GlcNAc(b1-3)Gal(b1-4)Glc
Summary of the method: as §1

[12] = target: Fuc(a1-2)Gal(b1-3)GlcNAc(b1-3)GalNAc
Summary of the method: as §1

[13] = target: Fuc(a1-2)Gal(b1-3)GlcNAc(b1-3)[Fuc(a1-2)Gal(b1-3)GlcNAc(b1-6)]GalNAc
Summary of the method: as §1

[14] = target: Fuc(a1-2)Gal(b1-3)GlcNAc(b1-3)[Gal(b1-4)GlcNAc(b1-6)]Gal(b1-4)Glc
Summary of the method: as §1

[15] = target: Fuc(a1-2)Gal(b1-3)GlcNAc(b1-3)[Neu5Ac(a2-6)Gal(b1-4)GlcNAc(b1-6)]Gal(b1-4)Glc
Summary of the method: as §1

[16] = target: Fuc(a1-2)Gal(b1-3)GlcNAc6S
Summary of the method: as §1

[17] = target: Fuc(a1-2)Gal(b1-3)[Fuc(a1-4)]GlcNAc
Summary of the method: as §1

[18] = target: Fuc(a1-2)Gal(b1-3)[Fuc(a1-4)]GlcNAc(b1-2)Man(a1-3)[Fuc(a1-2)Gal(b1-3)[Fuc(a1-4)]GlcNAc(b1-2)Man(a1-3)]Man(b1-4)GlcNAc(b1-4)GlcNAc
Summary of the method: as §1

[19] = target: Fuc(a1-2)Gal(b1-3)[Fuc(a1-4)]GlcNAc(b1-2)Man(a1-3)[Fuc(a1-2)Gal(b1-3)[Fuc(a1-4)]GlcNAc(b1-2)Man(a1-6)]Man(b1-4)GlcNAc(b1-4)[Fuc(a1-6)]GlcNAc(b1-4)[Fuc(a1-6)]GlcNAc
Summary of the method: as §1

[20] = target: Fuc(a1-2)Gal(b1-3)[Fuc(a1-4)]GlcNAc(b1-3)[Fuc(a1-3)[Gal(b1-4)]GlcNAc(b1-6)]Gal(b1-4)Glc
Summary of the method: as §1

[21] = target: Fuc(a1-2)Gal(b1-3)[Fuc(a1-4)]GlcNAc(b1-3)[Gal(b1-4)GlcNAc(b1-6)]Gal(b1-4)Glc
Summary of the method: as §1

[22] = target: Fuc(a1-2)Gal(b1-4)Fuc(a1-3)]GlcNAc(b1-2)Man(a1-3)[Fuc(a1-2)Gal(b1-4)[Fuc(a1-3)]GlcNAc(b1-2)Man(a1-6)]Man(b1-4)GlcNAc(b1-4)GlcNAc
Summary of the method: as §1

[23] = target: Fuc(a1-2)Gal(b1-4)Glc
Summary of the method: as §1

[24] = target: Fuc(a1-2)Gal(b1-4)Glc6S
Summary of the method: as §1

[25] = target: Fuc(a1-2)Gal(b1-4)GlcNAc
Summary of the method: as §1

[26] = target: Fuc(a1-2)Gal(b1-4)GlcNAc(b1-2)Man
Summary of the method: as §1

[27] = target: Fuc(a1-2)Gal(b1-4)GlcNAc(b1-2)Man(a1-3)[Fuc(a1-2)Gal(b1-4)GlcNAc(b1-2)Man(a1-6)]Man(b1-4)GlcNAc(b1-4)GlcNAc
Summary of the method: as §1

[28] = target: Fuc(a1-2)Gal(b1-4)GlcNAc(b1-2)Man(a1-3)[Fuc(a1-2)Gal(b1-4)GlcNAc(b1-2)Man(a1-6)]Man(b1-4)GlcNAc(b1-4)[Fuc(a1-6)]GlcNAc
Summary of the method: as §1

[29] = target: Fuc(a1-2)Gal(b1-4)GlcNAc(b1-2)[Fuc(a1-2)Gal(b1-4)GlcNAc(b1-4)]Man(a1-3)[Fuc(a1-2)Gal(b1-4)GlcNAc(b1-2)Man(a1-6)]Man(b1-4)GlcNAc(b1-4)GlcNAc
Summary of the method: as §1

[30] = target: Fuc(a1-2)Gal(b1-4)GlcNAc(b1-3)Gal(b1-4)GlcNAc
Summary of the method: as §1

B1: CVN-E41G (protein)
chain: MHHHHHHENLYFQSGNFSQACYNSAIQGSVLTSTCIRTNGGYNTSSIDLNSVIANVDGSLKWQGSNFIETCRNTQLAGSSELAAECKTRAQQFVSTKINLDDHIAAIDGTLKYE
glycan array binding signal (z-score) [1]: -0.151 | glycan array binding signal (z-score) [2]: -0.207 | glycan array binding signal (z-score) [3]: -0.198 | glycan array binding signal (z-score) [4]: -0.16 | glycan array binding signal (z-score) [5]: 0.084 | glycan array binding signal (z-score) [6]: -0.141 | glycan array binding signal (z-score) [7]: -0.172 | glycan array binding signal (z-score) [8]: -0.224 | glycan array binding signal (z-score) [9]: 0.445 | glycan array binding signal (z-score) [10]: 0.677 | glycan array binding signal (z-score) [11]: -0.154 | glycan array binding signal (z-score) [12]: 0.097 | glycan array binding signal (z-score) [13]: 0.091 | glycan array binding signal (z-score) [14]: -0.169 | glycan array binding signal (z-score) [15]: -0.168 | glycan array binding signal (z-score) [16]: -0.051 | glycan array binding signal (z-score) [17]: -0.228 | glycan array binding signal (z-score) [18]: 0.053 | glycan array binding signal (z-score) [19]: 0.571 | glycan array binding signal (z-score) [20]: -0.223 | glycan array binding signal (z-score) [21]: -0.08 | glycan array binding signal (z-score) [22]: 0.18 | glycan array binding signal (z-score) [23]: -0.206 | glycan array binding signal (z-score) [24]: -0.072 | glycan array binding signal (z-score) [25]: -0.234 | glycan array binding signal (z-score) [26]: -0.09 | glycan array binding signal (z-score) [27]: 0.4 | glycan array binding signal (z-score) [28]: 0.904 | glycan array binding signal (z-score) [29]: 0.764 | glycan array binding signal (z-score) [30]: -0.201
